Measured values as given in patent publication US12221481B2, “CD19 binding molecules and uses thereof” (Novartis AG, priority 2019, dated 2025).

B1: NEG258-based BBM: BBM of Example 1A: anti-CD19 Fab with NEG258 variable regions and CD3hi anti-CD3 scFv, knob-into-hole hIgG1 (antibody)
heavy: QVQLVQSGAEVKKPGASVKVSCKASGYTFTTYWIQWVRQAPGQRLEWMGAVYPGDADTRYTQKFQGRVTLTADRSASTAYMELSSLRSEDTAVYYCGRDAGLEYYALDYWGQGTLVTVSSASTKGPSVFPLAPSSKSTSGGTAALGCLVKDYFPEPVTVSWNSGALTSGVHTFPAVLQSSGLYSLSSVVTVPSSSLGTQTYICNVNHKPSNTKVDKRVEPKSCDKTHTCPPCPAPELLGGPSVFLFPPKPKDTLMISRTPEVTCVVVAVSHEDPEVKFNWYVDGVEVHNAKTKPREEQYASTYRVVSVLTVLHQDWLNGKEYKCKVSNKALAAPIEKTISKAKGQPREPQVCTLPPSREEMTKNQVSLSCAVKGFYPSDIAVEWESNGQPENNYKTTPPVLDSDGSFFLVSKLTVDKSRWQQGNVFSCSVMHEALHNHYTQKSLSLSPGK
light: EIVMTQSPATLSVSPGERATLSCRASQDVGTAVAWYQQKPGQAPRLLIYWASTRHTGIPARFSGSGSGTEFTLTISSLQSEDFAVYFCQQYANFPLYTFGQGTKLEIKRTVAAPSVFIFPPSDEQLKSGTASVVCLLNNFYPREAKVQWKVDNALQSGNSQESVTEQDSKDSTYSLSSTLTLSKADYEKHKVYACEVTHQGLSSPVTKSFNRGEC
scFv: EVQLVESGGGLVQPGGSLKLSCAASGFTFNTYAMNWVRQASGKGLEWVGRIRSKYNNYATYYADSVKDRFTISRDDSKSTLYLQMNSLKTEDTAVYYCVRHGNFGNSYVSWFAYWGQGTLVTVSSGGGGSGGGGSGGGGSGGGGSQAVVTQEPSLTVSPGGTVTLTCRSSTGAVTTSNYANWVQQKPGQAPRGLIGGTNKRAPWTPARFSGSLLGDKAALTLSGAQPEDEAEYFCALWYSNLWVFGGGTKLTVLGGGGSDKTHTCPPCPAPELLGGPSVFLFPPKPKDTLMISRTPEVTCVVVAVSHEDPEVKFNWYVDGVEVHNAKTKPREEQYASTYRVVSVLTVLHQDWLNGKEYKCKVSNKALAAPIEKTISKAKGQPREPQVYTLPPCREEMTKNQVSLWCLVKGFYPSDIAVEWESNGQPENNYKTTPPVLDSDGSFFLYSKLTVDKSRWQQGNVFSCSVMHEALHNRYTQKSLSLSPGK
B2: NEG218-based BBM: BBM of Example 1A: anti-CD19 Fab with NEG218 variable regions and CD3hi anti-CD3 scFv, knob-into-hole hIgG1 (antibody)
heavy: EVQLVQSGAEVKKPGESLKISCKASGYSFTNYWMNWVRQMPGKGLEWMGMIHPSDSEIRLNQKFQGQVTLSVDKSIGTAYMQWSSLKASDTAMYYCSRWYYLSSPMDYWGQGTTVTVSSASTKGPSVFPLAPSSKSTSGGTAALGCLVKDYFPEPVTVSWNSGALTSGVHTFPAVLQSSGLYSLSSVVTVPSSSLGTQTYICNVNHKPSNTKVDKRVEPKSCDKTHTCPPCPAPELLGGPSVFLFPPKPKDTLMISRTPEVTCVVVAVSHEDPEVKFNWYVDGVEVHNAKTKPREEQYASTYRVVSVLTVLHQDWLNGKEYKCKVSNKALAAPIEKTISKAKGQPREPQVCTLPPSREEMTKNQVSLSCAVKGFYPSDIAVEWESNGQPENNYKTTPPVLDSDGSFFLVSKLTVDKSRWQQGNVFSCSVMHEALHNHYTQKSLSLSPGK
light: EIVMTQSPATLSVSPGERATLSCRASQDVGTAVAWYQQKPGQAPRLLIYWASTRHTGIPARFSGSGSGTEFTLTISSLQSEDFAVYFCQQYSSYPYTFGQGTKLEIKRTVAAPSVFIFPPSDEQLKSGTASVVCLLNNFYPREAKVQWKVDNALQSGNSQESVTEQDSKDSTYSLSSTLTLSKADYEKHKVYACEVTHQGLSSPVTKSFNRGEC
scFv: B1 scFv
B3: CD3hi-TSP1 (antibody)
heavy: QVQLVQSGAEVKKPGASVKVSCKASGYTFTTYWIQWVRQAPGQRLEWMGAVYPGDADTRYTQKFQGRVTLTADRSASTAYMELSSLRSEDTAVYYCGRDAGLEYYALDYWGQGTLVTVSSASTKGPSVFPLAPSSKSTSGGTAALGCLVKDYFPEPVTVSWNSGALTSGVHTFPAVLQSSGLYSLSSVVTVPSSSLGTQTYICNVNHKPSNTKVDKRVEPKSCGGGGSGGGGSEVQLVESGGGLVQPGGSLKLSCAASGFTFNTYAMNWVRQASGKGLEWVGRIRSKYNNYATYYADSVKDRFTISRDDSKSTLYLQMNSLKTEDTAVYYCVRHGNFGNSYVSWFAYWGQGTLVTVSSGGGGSGGGGSGGGGSGGGGSQAVVTQEPSLTVSPGGTVTLTCRSSTGAVTTSNYANWVQQKPGQAPRGLIGGTNKRAPWTPARFSGSLLGDKAALTLSGAQPEDEAEYFCALWYSNLWVFGGGTKLTVLGGGGSDKTHTCPPCPAPELLGGPSVFLFPPKPKDTLMISRTPEVTCVVVAVSHEDPEVKFNWYVDGVEVHNAKTKPREEQYASTYRVVSVLTVLHQDWLNGKEYKCKVSNKALAAPIEKTISKAKGQPREPQVCTLPPSREEMTKNQVSLSCAVKGFYPSDIAVEWESNGQPENNYKTTPPVLDSDGSFFLVSKLTVDKSRWQQGNVFSCSVMHEALHNHYTQKSLSLSPGK
light: B1 light
chain: SQQIYGVVYGNVTFHVPSNVPLKEVLWKKQKDKVAELENSEFRAFSSFKNRVYLDTVSGSLTIYNLTSSDEDEYEMESPNITDTMKFFLYVLESGGGGSDKTHTCPPCPAPELLGGPSVFLFPPKPKDTLMISRTPEVTCVVVAVSHEDPEVKFNWYVDGVEVHNAKTKPREEQYASTYRVVSVLTVLHQDWLNGKEYKCKVSNKALAAPIEKTISKAKGQPREPQVYTLPPCREEMTKNQVSLWCLVKGFYPSDIAVEWESNGQPENNYKTTPPVLDSDGSFFLYSKLTVDKSRWQQGNVFSCSVMHEALHNHYTQKSLSLSPGK

Tests used:
[1] = system: Karpas422-luc cells; assay: RTCC assay with BBMs against Karpas422-luc cells; type: cell-based, human; details: expanded T cells, E:T 3:1, 24 h
Method: (§1) A RTCC assay with the BBMs of Example 1A was performed to measure the ability of the BBMs to elicit RTCC against CD19+ Nalm6-luc and Karpas422-luc cells. Nalm-6 is a human B cell precursor leukemia cell line and Karpas422 is a human B-cell non-hodgkin lymphoma cell line. Briefly, Nalm6 and Karpas422 cells engineered to express the firefly luciferase reporter gene were cultured in RPMI1640 culture media with 10% fetal bovine serum (FBS). 10,000 target cells with serial diluted BBMs or gH isotype antibody control (αgH-CD3hi) were seeded on 384-well flat-bottom microtiter plate. Primary human T cells were isolated from cryopreserved peripheral blood mononuclear cells (PBMCs) and expanded using anti-CD3 and anti-CD28 dynabeads (Thermo fisher, catalog #11131D) and subsequently cryopreserved. Expanded T cells were thawed and aliquoted to the plate to achieve an effector cell (i.e., T cell) to target cell (i.e., cancer cell) ratio (E:T ratio) of 3:1. Plates were incubated in a 37° C. incubator with 5% CO2 overnight. Following the co-incubation, Bright Glo (Promega, catalog #E2620) was added to all wells and the luminescence signal was subsequently measured on an Envision (Perkin Elmer). Target cells with Bright Glo served as maximal signal. The percent RTCC of target cells was calculated using the following formula: [100−(sample/maximal signal)*100%].

[2] = system: T cells; assay: T cell proliferation induced by BBMs (Cell Trace Violet dilution); type: cell-based, human; details: co-culture with Karpas422 or Nalm-6 target cells, E:T 1:1, 96 hrs
Method: The BBMs described in Example 1A, containing the variable regions of NEG258 and NEG218, were evaluated for their ability to induce T cell proliferation upon co-culture with CD19 expressing target cells. Briefly, Karpas422 and Nalm-6 target cells stably expressing firefly luciferase were irradiated on the day of the assay and plated at a density of 60,000 cells per well in a Costar 96 well plate (Corning, Cat #3904) in T Cell Media (TCM) [RPMI-1640 (ThermoFisher Scientific, Cat #11875-085), 10% FBS (Seradigm, Cat #1500-500), 1% L-Glutamine (Thermo Fisher Scientific, Cat #25830-081), 1% Non Essential Amino Acids (Thermo Fisher Scientific, Cat #11140-050), 1% Pen/Strep (Thermo Fisher Scientific, Cat #15070063), 1% HEPES (Thermo Fisher Scientific, Cat #15630080), Sodium Pyruvate (Thermo Fisher Scientific, Cat #11360-070), 0.1% Beta-mercaptoethanol (Thermo Fisher Scientific, Cat #21985-023)]. Peripheral blood mononuclear cells (PBMCs) previously isolated from Leukopak donors (Hemacare) and cryopreserved were thawed and Pan T cells were isolated by negative selection using the Pan T cell Isolation Kit, human [Miltenyi Biotec, Cat #130-096-535] following the manufacturer's protocol. Isolated T cells were labelled with 5 μM Cell Trace Violet (CTV) (Thermo Fisher Scientific, Cat #C34557) following the manufacturer's protocol and 60,000 CTV labeled T cells were co-cultured with 60,000 target cells to achieve an E:T ratio of 1:1. A dilution series of the NEG258- and NEG218-based BBMs and control binding molecules (αgH-CD3hi) ranging from 16 pM-10,000 pM was added to cells and the plates were incubated in a 5% CO2, 37° C. incubator for 96 hrs. […] The samples were then run on BD LSR Fortessa and analyzed using FlowJo to determine % proliferated CD3+ T cells based on CD3 staining and dilution of Cell Trace Violet dye.

[3] = system: Nalm6-luc cells; assay: RTCC assay with BBMs against Nalm6-luc cells; type: cell-based, human; details: expanded T cells, E:T 3:1, 24 h
Method: as §1

[4] = system: OCI-LY-19 DLBCL subcutaneous tumor; assay: OCI-LY-19 DLBCL subcutaneous tumor model in huCD34+ NSG mice, single dose, dose range finding (Example 30); details: 0.01 mg/kg, single dose IV

| Molecule | RTCC activity [1] | T cell proliferation (% proliferated CD3+ T cells) [2] | T cell proliferation, potency compared between BBMs [2] | RTCC activity [3] | Δ Body weight from initial (Mean ± SEM) Day 24 [4] | Δ Tumor burden from initial (Mean ± SEM) Day 24 [4] | ΔT/ΔC ([4]; Day 24) |
| --- | --- | --- | --- | --- | --- | --- | --- |
| B1 | mediated RTCC activity | induced proliferation of T cells | more potent activity than the NEG218-based BBM | mediated RTCC activity |  |  |  |
| B2 | mediated RTCC activity | induced proliferation of T cells |  | mediated RTCC activity |  |  |  |
| B3 |  |  |  |  | 4.54 ± 2.25% | 1110.7 ± 201.7 mm^3 | 100% |
